AUClast data for one molecule are collected here from US11666578B2, “Small molecule inhibitors of CDK12/CDK13” (The Scripps Research Institute, priority 2018, dated 2023).

The data set is described as follows: Mouse PK. The data set is classed as in vivo. The settings on record: PO 20 mg/kg.

Some entries of the source have several records that differ or are many. This list holds those alone. The source may hold further records. Values that stand side by side seem to repeat one measurement on other runs, samples or individuals.

Turning to `Cn1cc(-n2cnc3c(NCc4nc5cc(Cl)c(Cl)cc5[nH]4)nc(N4CCOCC4)nc32)cn1` [Compound 5, N-((5,6-dichloro-1H-benzo[d]imidazol-2-yl)methyl)-9-(1-methyl-1H-pyrazol-4-yl)-2-morpholino-9H-purin-6-amine], the AUClast is 697216 min*ng/mL and 23 μM.hr [columns of one line].
